According to PubChem BioAssay AID686971 (National Center for Advancing Translational Sciences (NCATS), 2013):
Several values for one entry are separate records, joined by “and”; a condition that tells them apart may be missing. Identical values can stand only once. In all, about 360,000 compounds went through this assay and about 7,500 (2.1%) were called active. The inconclusive results got no clear call from the source; some entries with a clear call stand among them for comparison. The call rests on the fitted dose curve; in most records, active means well fitted cell-killing curve with a large enough effect; inconclusive means small, poorly fitted or top-dose-only effect, or effect the other way, or another doubt; inactive means no such curve, though single readings can be large or run the other way. A potency beside an inconclusive call is a rough fit, not a confirmed value.

Assay: qHTS for induction of synthetic lethality in tumor cells producing 2HG: qHTS for the HT-1080-IDH1KD cell line;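 on activity, negative = toxicity: 0% = DMSO wells and -100% = cell-free medium wells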
Settings: HT-1080 IDH1 knockdown viability, ATP luminescence, 48 h; activity, negative = toxicity: at 46.1 µM (top of the series) unless noted
Summary of the method: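 % activity derives from luminescence (CellTiter-Glo), normalised to DMSO and no-cell wells. HT-1080-IDH1KD cells, 750/well, had 48 h compound exposure at 37 °C.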
Potency means the concentration at half of the fitted maximal effect; tags describe the fitted curve by direction and shape.

Structure (SMILES)	Potency	activity, negative = toxicity
COc1ccc(OC)c(C(=O)CC2OC(=O)c3ccccc32)c1 (configuration not stated)	inconclusive: 29.1 µM [cytotoxic, single point]	
Fc1ccc(Br)cc1C1C=C(c2ccc(Br)s2)Nc2ncnn21 (configuration not stated)	active: 1.16 µM	
CCCNC(=O)C1(C)CCN(Cc2cc(C)n(C)n2)C1 (configuration not stated)	inconclusive: 9.2 µM [rising, partial curve]	
Cn1c(=O)c(C(=O)CN2CCCCCC2)c(N)n(Cc2ccccc2)c1=O		inactive: -0.382%
COc1cc(C(=O)NCC2(N(C)C)CCCCC2)ccc1OCc1ccccc1	active: 9.2 µM	
C=C(C(=O)c1ccccc1)C(C(=C)C(=O)c1ccccc1)c1ccc(OC)cc1		inactive: -5.76%
COC(=O)c1ccc(NC(=S)N(Cc2cccnc2)Cc2ccco2)cc1		inactive: 3.74%
Cc1nn(C)c(Cl)c1NC(=O)OCc1ccc(Cl)cc1Cl		inactive: -26%
CCN1CCN(Cc2ccc(NC(=O)c3cc(NC(=O)c4cncc(-c5ccc(C#N)cc5)c4)cc(OC)c3)cc2C(F)(F)F)CC1	inconclusive: 29.1 µM [cytotoxic, single point] and inconclusive: 20.6 µM [cytotoxic, single point]	
CCC(C(=O)NCCC1=CCCCC1)c1ccccc1 (configuration not stated)		inactive: 6.25%
COC(=O)CC1=C(C(=O)OC)[C@@H](c2ccccc2[N+](=O)[O-])C(C#N)=C(N)O1		inactive: -11.5%
COc1ccc(C(C)(O)c2nc(-c3ccncc3)cs2)cc1 (configuration not stated)	inconclusive: 29.1 µM [cytotoxic, single point]	
COC(=O)[C@@]12C[C@@H](CC(=O)NCC34CC5CC(CC(C5)C3)C4)C(=O)N(Cc3ccco3)C1=CCC(C)(C)C2	inconclusive: 25.9 µM [cytotoxic, single point]	
O=C(N(c1ccccn1)c1ccccn1)C12CC3CC(CC(C3)C1)C2		inactive: -6.53%
CC1=C(CO)C(=O)OC([C@@H](C)C2CC[C@H]3C4C[C@H]5O[C@]56[C@@H](O)C=CC(=O)[C@]6(C)C4CC[C@]23C)C1 (some centres not stated)	active: 18.4 µM	
Cc1c(NC(=O)Oc2ccccc2)sc(=S)n1C	inconclusive: 35.5 µM [cytotoxic, single point]	
CC(O)(c1ccc(F)c(F)c1)c1nc(-c2csc3ccccc23)cs1 (configuration not stated)	inconclusive: 29.1 µM [cytotoxic, single point]	
Cc1cc(-c2ccccc2)n(-c2cc(N/N=C/c3ccccc3O)ncn2)n1	active: 1.03 µM	
Cc1ccc(N2CCN(C(=O)c3cn(CC4CCCCC4)nn3)C(C)C2)cc1 (configuration not stated)	inconclusive: 29.1 µM [cytotoxic, single point]	
CC(=O)O[C@H]1CC[C@H]2[C@@H]3CCc4cc(O)ccc4[C@H]3CC[C@]12C	inconclusive: 29.1 µM [cytotoxic, single point]	
CCc1nc2c(OCc3ccc(Cl)cc3)cccn2c1N(C)C(=O)c1ccco1	inconclusive: 29.1 µM [cytotoxic, single point]	
COc1ccc(-c2csc(N(CCCN(C)C)C(=O)c3ccc(C)cc3)n2)cc1	inconclusive: 16.4 µM [cytotoxic, single point]	
C=Cc1ccc(N=Cc2c(O)ccc3ccccc23)cc1	inconclusive: 20.6 µM [cytotoxic, partial curve]	

Structure (SMILES)	Potency	activity, negative = toxicity
N#C/C(=N\Nc1cccc(C(F)(F)F)c1)C(=O)c1csc(-c2cccnc2)n1	inconclusive: 29.1 µM [cytotoxic, single point]	
O=C(Nc1nc(NC(=O)c2ccco2)n(-c2ccccc2)n1)c1ccccc1	active: 2.51 µM	
O=C(Cn1ncc(Cl)c(Cl)c1=O)N1CCOCC1	active: 13 µM	
CS(=O)(=O)N(CC(=O)Nc1ccccc1Sc1ccccc1)c1ccc(F)cc1	inconclusive: 29.1 µM [cytotoxic, single point]	
Fc1ccc(-c2nnc(CN3CCN(c4ncc(C(F)(F)F)cc4Cl)CC3)o2)cc1	inconclusive: 29.1 µM [cytotoxic, single point]	
CC1(C(=O)Nc2cccc(Oc3ccccc3)c2)CCN1Cc1cc2ccccc2o1 (configuration not stated)	inconclusive: 23.1 µM [cytotoxic, single point]	
O=C(NCCCSc1ccccc1)c1cc(Cl)ccc1O	inconclusive: 18.4 µM [cytotoxic, partial curve]	
O=S(=O)(c1ccc2c(c1)CCCN2)N1CCCC2CCCCC21 (configuration not stated)	inconclusive: 20.6 µM [cytotoxic, single point]	
COc1ccc(Cl)cc1NC(=S)NCCc1c[nH]c2ccccc12	inconclusive: 35.5 µM [cytotoxic, single point]	
N=c1sccn1CC(=O)Nc1cccc(Oc2ccccc2)c1	inconclusive: 20 µM [cytotoxic, partial curve]	
CCCOc1ccc(C(C)(O)CN2CCOCC2)cc1 (configuration not stated)		inactive: 2.34% [at 9.24 µM]
Cn1cc(CN2CCCCC2CO)c(-c2ccc(Oc3ccccc3)cc2)n1 (configuration not stated)	inconclusive: 20.6 µM [cytotoxic, single point]	
CN(C)N=Nc1ccc(S(=O)(=O)N2CCSC2C(=O)O)cc1 (configuration not stated)	inconclusive: 0.794 µM [rising, full curve, poor fit]	
c1ccc(-c2cc3c(N4CCOCC4)ncnc3s2)cc1	inconclusive: 16.4 µM [cytotoxic, single point]	
N#CC1=C(N)OC2=C(CCc3ccccc32)C1c1ccccc1 (configuration not stated)	active: 0.58 µM	
COC(=O)CCC(=O)OC1(C)C(=O)C2=CN(c3ccccc3)C(c3ccc(OC)cc3)=CC2=C(Br)C1=O (configuration not stated)		inactive: -3.81%
O=S(=O)(c1ccccc1)N1CCCCC1CCc1ccccc1 (configuration not stated)		inactive: -12.5%
CCCC(=O)N(C1CC(C)C(C#N)(C#N)C1(C#N)C#N)N(C)C (configuration not stated)	inconclusive: 25.9 µM [cytotoxic, single point]	
COc1cc(C)cc(C(=O)C=Cc2ccccc2)c1O	inconclusive: 29.1 µM [cytotoxic, single point]	
CSCCC(NS(=O)(=O)Cc1ccccc1)C(=O)NNc1ccccc1 (configuration not stated)	inconclusive: 3.66 µM [cytotoxic, full curve]	
COc1cc(OC)c(NC(=O)c2ccoc2C)cc1Cl	inconclusive: 35.5 µM [cytotoxic, single point]	
CC(C)Cc1ccc(-c2cc3nc(NCCOc4ccccc4)ccn3n2)cc1	inconclusive: 10.3 µM [cytotoxic, partial curve]	
COC(=O)C1=C(C)NC(C)=C(C(=O)OC)C1c1cn(-c2ccccc2)nc1-c1ccco1	inconclusive: 18.4 µM [cytotoxic, partial curve]	

Structure (SMILES)	Potency	activity, negative = toxicity
Cc1ccccc1Cn1c(C)c(C(=O)NCC(C)C)sc1=O	inconclusive: 14.6 µM [rising, partial curve, poor fit]	
O=C(Nc1ccc2nc(-c3cccs3)c(-c3cccs3)nc2c1)N1CCOCC1	inconclusive: 22.4 µM [cytotoxic, single point]	
CNc1ccc(Cl)cc1S(=O)(=O)c1ccccc1[N+](=O)[O-]	inconclusive: 25.9 µM [cytotoxic, single point]	
O=C(N/N=C/c1ccccn1)c1cc(-c2ccc(Br)s2)[nH]n1	inconclusive: 14.6 µM [cytotoxic, partial curve, poor fit]	
O=C(Nc1ccc(Oc2ccccc2)cc1)c1ccc2nc([C@@H]3O[C@H](CO)[C@H](O)[C@H](O)[C@H]3O)[nH]c2c1	inconclusive: 23.1 µM [rising, partial curve]	
COc1ccc2[nH]c(C(=O)N/N=C/c3ccccc3OC)cc2c1	inconclusive: 13 µM [cytotoxic, partial curve]	
Cc1cc(N/N=C/c2ccc(O)cc2O)nc(-c2ccccc2O)n1	inconclusive: 7.31 µM [cytotoxic, partial curve]	
Cc1ccc(NC(=O)CN(Cc2ccco2)Cc2ccccc2O)cc1C	inconclusive: 14.6 µM [cytotoxic, partial curve]	
CC1CCc2c(nc3sc4c(c3c2N)CCCC4)C1 (configuration not stated)	inconclusive: 16.4 µM [cytotoxic, single point]	
Cc1nc(N)nc(Nc2ccc(Cl)cc2)c1Br	inconclusive: 11.2 µM [cytotoxic, single point]	
COc1ccc2ccc3c(c2c1)N=CC1(O3)N(C)c2ccccc2C1(C)C (configuration not stated)	active: 6.31 µM	
CN(C)c1ccc(N/C(N)=N/c2nc(C(F)(F)F)cc(C(F)(F)F)n2)cc1		inconclusive: -5.71% [cytotoxic]
O=C(Nc1ccccc1C(=O)N1CCCCC1)c1cc(F)c(F)cc1Cl		inactive: -25.7%
CS(=O)(=O)N1CCc2cc(-c3csc(NC(=O)Cc4cccs4)n3)ccc21	inconclusive: 11.2 µM [cytotoxic, single point]	
COc1ccc2c(c1)C1C=CCC1C(c1cc3c(cc1Br)OCO3)N2 (configuration not stated)	active: 10 µM	
COc1ccc(NS(=O)(=O)c2cccc(N/C(=N\S(=O)(=O)c3ccccc3)c3ccc(F)cc3)c2)cc1	inconclusive: 29.1 µM [cytotoxic, single point]	
CC(C)[C@@H](CO)NC(=O)c1ccc2c3n(nc2c1)-c1ccccc1CO3	inconclusive: 23.1 µM [cytotoxic, partial curve]	
CC(C)C1Nc2c(O)cc(Cl)c([N+](=O)[O-])c2C2C=CCC21 (configuration not stated)	inconclusive: 29.1 µM [cytotoxic, single point]	
COc1ccc(NC(=O)Nc2cccc3c2O[C@H](CN(C)S(=O)(=O)c2ccc(F)cc2)[C@@H](C)CN([C@H](C)CO)C3=O)cc1		inactive: -9.3%
CN1CCN(c2nc(-c3ccccn3)nc3ccccc23)CC1	active: 7.94 µM	
CCCc1ccc(C2C3=C(CC(C)(C)CC3=O)NC3=C2C(=O)c2ccccc23)cc1 (configuration not stated)	inconclusive: 22.4 µM [cytotoxic, single point]	
